According to paper PMC11995724, “Antibiotic target discovery by integrated phenotypic and activity-based profiling of electrophilic fragments” (Cell chemical biology, 2025):
Hit rate of the full screen: of about 3,200 compounds, about 110 (3.4%) showed an effect of 50% or more. This is one part of the list.

These compounds were tested on T1, V. cholerae SAD30. Settings: relative growth, OD600, LB; 25 µM; inhibitor.
T1 construct: SAD30
Parameters: species or system S. aureus MSSA476 (TSB) or V. cholerae SAD30 (LB); 384-well bacterial growth screen at 25 uM, OD600 relative to DMSO control

Structure (SMILES)	% of control remaining [%]
O=C(CCl)Nc1ccc(OC(F)F)cc1 [4-J10, 2-chloro-N-[4-(difluoromethoxy)phenyl]acetamide]	103.86
COC(=O)c1ccc(C=C(C#N)C(=O)NC(C)C)n1C [9-P12, methyl 5-{2-cyano-2-[(propan-2-yl)carbamoyl]eth-1-en-1-yl}-1-methyl-1H-pyrrole-2-carboxylate]	84.7723
CC(C)NC(=O)C(C#N)=Cc1ccc2ccccc2c1 [9-C13, 2-cyano-3-(naphthalen-2-yl)-N-(propan-2-yl)prop-2-enamide]	81.3732
C=CC(=O)N(CCC(N)=O)C1CCOc2ccccc21 (centres unmarked) [3-F13, N-(2-carbamoylethyl)-N-(3,4-dihydro-2H-1-benzopyran-4-yl)prop-2-enamide]	92.0897
Cc1cnc(-c2cccc(NC(=O)C(C#N)=Cc3ccco3)c2)o1 [9-M18, 2-cyano-3-(furan-2-yl)-N-[3-(5-methyl-1,3-oxazol-2-yl)phenyl]prop-2-enamide]	75.119
O=C(CCl)Nc1nc(-c2cccs2)cs1 [5-D18, 2-chloro-N-[4-(thiophen-2-yl)-1,3-thiazol-2-yl]acetamide]	71.1148
CC(Cl)C(=O)NCCc1nc2cc(F)ccc2s1 (centres unmarked) [7-P11, 2-chloro-N-[2-(5-fluoro-1,3-benzothiazol-2-yl)ethyl]propanamide]	81.4142
C=CC(=O)NCCc1ccccc1OC [2-O03, N-[2-(2-methoxyphenyl)ethyl]prop-2-enamide]	104.246
CCOC=C(C#N)C(=O)N1CCN(S(=O)(=O)c2cc[nH]n2)CC1 [9-D06, 3-ethoxy-2-[4-(1H-pyrazole-3-sulfonyl)piperazine-1-carbonyl]prop-2-enenitrile]	86.1319
C=CC(=O)N1CCCC1c1cn(C)nc1C (centres unmarked) [3-M09, 1-[2-(1,3-dimethyl-1H-pyrazol-4-yl)pyrrolidin-1-yl]prop-2-en-1-one]	97.2064
C=CC(=O)N(CC)CC(=O)N1CCN(c2ccsc2C#N)CC1 [3-L05, N-{2-[4-(2-cyanothiophen-3-yl)piperazin-1-yl]-2-oxoethyl}-N-ethylprop-2-enamide]	94.0305
COc1ccc(C)cc1NC(=O)C(C)Cl (centres unmarked) [5-P22, 2-chloro-N-(2-methoxy-5-methylphenyl)propanamide]	100.2
C=CC(=O)N(Cc1cnn(C2CCC2)c1)C1CCCc2occc21 (centres unmarked) [2-G07, N-[(1-cyclobutyl-1H-pyrazol-4-yl)methyl]-N-(4,5,6,7-tetrahydro-1-benzofuran-4-yl)prop-2-enamide]	83.8657
CC(=Cc1ccccc1)C=C(C#N)C(=O)Nc1nccs1 [8-F08, 2-cyano-4-methyl-5-phenyl-N-(1,3-thiazol-2-yl)penta-2,4-dienamide]	73.3515
CC(C)C(NC(=O)CCl)c1ccc(F)cc1 (centres unmarked) [4-E13, 2-chloro-N-[1-(4-fluorophenyl)-2-methylpropyl]acetamide]	96.0966
Cn1cc(C=C(C#N)C(=O)NCCc2ccccc2)cn1 [8-L10, 2-cyano-3-(1-methyl-1H-pyrazol-4-yl)-N-(2-phenylethyl)prop-2-enamide]	69.5445
Cc1ncccc1NC(=O)[C@H](C)NC(=O)C(C)Cl (stereo partly drawn) [6-D09, 2-chloro-N-[(1S)-1-[(2-methylpyridin-3-yl)carbamoyl]ethyl]propanamide]	88.1221
N#CC(=Cc1cnn(-c2ccc(Cl)cc2)c1)C(=O)NC1CCCCC1 [8-A08, 3-[1-(4-chlorophenyl)-1H-pyrazol-4-yl]-2-cyano-N-cyclohexylprop-2-enamide]	90.2107
CC(Cl)C(=O)Nc1ccc(C(C)(C)C)cc1 (centres unmarked) [4-G12, N-(4-tert-butylphenyl)-2-chloropropanamide]	80.0518
COc1cc(C)c(C(C)NC(=O)CCl)cc1OC (centres unmarked) [6-M09, 2-chloro-N-[1-(4,5-dimethoxy-2-methylphenyl)ethyl]acetamide]	93.4307
C=CC(=O)N1CCC(C(=O)NCc2ncnn2CC)CC1 [3-P03, N-[(1-ethyl-1H-1,2,4-triazol-5-yl)methyl]-1-(prop-2-enoyl)piperidine-4-carboxamide]	112.733
COc1ccccc1NC(=O)C(C)Cl (centres unmarked) [5-L20, 2-chloro-N-(2-methoxyphenyl)propanamide]	97.5097

Structure (SMILES)	% of control remaining [%]
O=C(CCl)Nc1ccccc1C(=O)c1ccccc1 [4-J06, N-(2-benzoylphenyl)-2-chloroacetamide]	93.8538
C=CC(=O)NCCC(=O)N1CCC2(CC(=O)c3ccccc3O2)C1 (centres unmarked) [1-F12, N-(3-oxo-3-{4-oxo-3,4-dihydrospiro[1-benzopyran-2,3'-pyrrolidin]-1'-yl}propyl)prop-2-enamide]	101.325
C=CC(=O)NCCc1cnc2c(Cl)cnn2c1 [1-L06, N-(2-{3-chloropyrazolo[1,5-a]pyrimidin-6-yl}ethyl)prop-2-enamide]	104.024
C=CC(=O)NCCN1C(=O)SC(=Cc2ccc(Cl)cc2)C1=O [2-C05, N-(2-{5-[(4-chlorophenyl)methylidene]-2,4-dioxo-1,3-thiazolidin-3-yl}ethyl)prop-2-enamide]	84.792
COc1ccc(O)c(C=C(C#N)C(=O)Nc2cccc3ccccc23)c1 [8-N14, 2-cyano-3-(2-hydroxy-5-methoxyphenyl)-N-(naphthalen-1-yl)prop-2-enamide]	69.2726
C=CC(=O)N(CC)CC(=O)N1CCNC(=O)CC1c1ccccc1 (centres unmarked) [3-E21, N-ethyl-N-[2-oxo-2-(5-oxo-7-phenyl-1,4-diazepan-1-yl)ethyl]prop-2-enamide]	108.498
CC(Cl)C(=O)NCc1nc2c(s1)CC(c1ccccc1)CC2 (centres unmarked) [7-A05, 2-chloro-N-[(6-phenyl-4,5,6,7-tetrahydro-1,3-benzothiazol-2-yl)methyl]propanamide]	77.7135
N#CC(=Cc1ccc(F)cc1)C(=O)NCCc1cccc(Cl)c1 [8-K06, N-[2-(3-chlorophenyl)ethyl]-2-cyano-3-(4-fluorophenyl)prop-2-enamide]	57.9878
C=CC(=O)Nc1ccc(-c2nnnn2C)cc1 [2-F18, N-[4-(1-methyl-1H-1,2,3,4-tetrazol-5-yl)phenyl]prop-2-enamide]	90.9679
C=CC(=O)N[C@H]1CCO[C@@H]1c1ccnn1C(C)C (racemic) [3-K05, rac-N-[(2R,3R)-2-[1-(propan-2-yl)-1H-pyrazol-5-yl]oxolan-3-yl]prop-2-enamide]	98.7943
CC(=O)N(C)Cc1ccc(C(=O)CCl)cc1 [10-H04, N-{[4-(2-chloroacetyl)phenyl]methyl}-N-methylacetamide]	100.682
CC1CCN(Cc2csc(NC(=O)CCl)n2)CC1.Cl [6-E17, 2-chloro-N-{4-[(4-methylpiperidin-1-yl)methyl]-1,3-thiazol-2-yl}acetamide hydrochloride]	88.1221
C=CC(=O)NCC(C)(C)Cn1cccn1 [1-J04, N-[2,2-dimethyl-3-(1H-pyrazol-1-yl)propyl]prop-2-enamide]	59.1266
CC(Cl)C(=O)NC1CC(C)N(c2ccccc2)C1 (centres unmarked) [6-L15, 2-chloro-N-(5-methyl-1-phenylpyrrolidin-3-yl)propanamide]	87.0604
O=C(CCl)N1CCOCC1c1noc(-c2ccccc2)n1 (centres unmarked) [5-E10, 2-chloro-1-[3-(5-phenyl-1,2,4-oxadiazol-3-yl)morpholin-4-yl]ethan-1-one]	96.8372
Cn1c(CNC=C(C#N)C(=O)Nc2ccccc2)cc(=O)n(C)c1=O [9-G21, 2-cyano-3-{[(1,3-dimethyl-2,6-dioxo-1,2,3,6-tetrahydropyrimidin-4-yl)methyl]amino}-N-phenylprop-2-enamide]	88.5792
C=CC(=O)N[C@H]1CCCC[C@H]1c1ccnn1C (racemic) [2-G18, rac-N-[(1R,2S)-2-(1-methyl-1H-pyrazol-5-yl)cyclohexyl]prop-2-enamide]	92.975
CCOc1ccc(C(=O)C(C)Cl)cc1 (centres unmarked) [10-G06, 2-chloro-1-(4-ethoxyphenyl)propan-1-one]	103.331
Cl.O=C(CCl)NC1CCN(Cc2cscn2)CC1 [7-H04, 2-chloro-N-{1-[(1,3-thiazol-4-yl)methyl]piperidin-4-yl}acetamide hydrochloride]	92.1196
Cc1ccc(C2OCCCC2CNC(=O)C(C)Cl)cc1 (centres unmarked) [7-B09, 2-chloro-N-{[2-(4-methylphenyl)oxan-3-yl]methyl}propanamide]	83.3967
O=C(CCl)N(Cc1ccoc1)C1CCCCC1 [5-B15, 2-chloro-N-cyclohexyl-N-[(furan-3-yl)methyl]acetamide]	78.5121
CC1CSc2ccccc2N(C(=O)CCl)C1 (centres unmarked) [5-H07, 2-chloro-1-(3-methyl-2,3,4,5-tetrahydro-1,5-benzothiazepin-5-yl)ethan-1-one]	98.8547
